According to PMC12136788:
This is one part of the list.

T1: UNK ZnF1-6 (called full-length) (human, UniProt Q9C0B0 30-357)
T1 sequence: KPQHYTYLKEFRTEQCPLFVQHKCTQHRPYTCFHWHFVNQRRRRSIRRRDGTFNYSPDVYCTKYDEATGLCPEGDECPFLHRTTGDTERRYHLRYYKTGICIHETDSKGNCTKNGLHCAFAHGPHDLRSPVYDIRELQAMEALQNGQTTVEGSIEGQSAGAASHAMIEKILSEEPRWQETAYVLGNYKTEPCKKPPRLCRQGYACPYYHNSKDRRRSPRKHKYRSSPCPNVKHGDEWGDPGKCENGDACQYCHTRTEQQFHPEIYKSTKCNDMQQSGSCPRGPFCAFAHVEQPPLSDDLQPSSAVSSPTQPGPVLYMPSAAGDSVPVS

B1: chr5:95898239:95898810:-|CDS|ENSG00000118985|control|control|control (ssRNA)
RNA: GGGAGUUCUACAGUCCGACGAUCGUUGACAGUUUUAGUCAAAACGAUAGUAUCUAUGAGGACCAGCAAGACAAAUAUACCUCUAGGACUUCUCUGGAAACCUUACCCCCUGGUUCCGUUCUACUAAAGUGUCCAAAGCCUAUGCAACAGAGGAUUGAGCAUCA
B2: chr1:31179744:31181702:-|three_prime_utr|ENSG00000084628|control|control|control (ssRNA)
RNA: GGGAGUUCUACAGUCCGACGAUCUCAGACCCAUCCCAUCCCACCACACUCACUCACCAGCUCUGGGGAAAGCUACUGUGAACUAGGAGCAGGAUUCCUGGGUUCUAAUCGCAGGUCCAUCACUGACUGUGACGUCUAGCAAAGCAACAGAGGAUUGAGCAUCA
B3: chr10:117284474:117284575:-|CDS|ENSG00000165650|msi1|total|mutant (ssRNA)
RNA: GGGAGUUCUACAGUCCGACGAUCAUUGCAUUGUGGUGCAGGGAUCCUUUCAAGUUGGGAGGUCUCAUCUGUUUGGGGCAUGUCCGUUUAAAACUUGAAGAUGUGGCUUCCGGAUGCCCCGCUACAUCAAACACGGAAUACCUUCAACAGAGGAUUGAGCAUCA
B4: chr19:35125195:35125507:-|CDS|ENSG00000153902|control|control|control (ssRNA)
RNA: GGGAGUUCUACAGUCCGACGAUCCUCGCGCGGUGCCCACGUCUUCCAGCCACUGCUCAUCGCCAGGGACCAGCUGGCCAUCCUAGGCAGCGACUUCGCCUUCAGCCAGGUCCUCCGCCUUGAGCCUGACAAGGGGCUCCUGGACAACAGAGGAUUGAGCAUCA
B5: chr1:22530103:22530204:+|3pUTR|ENSG00000184677|msi1|FALSE|unique (ssRNA)
RNA: GGGAGUUCUACAGUCCGACGAUCCAUGUAUAGAGUGGGCAGGCGGUUCCAGGGAGACAAGCAGCAUGUUAUUAAAUUGGGCCUAGGCAGUUGGACGAUAAUGGAGAAAAAGCAGGGAUGCUAUAAUGAGUCCUCCCCAAGGGUCAACAGAGGAUUGAGCAUCA
B6: chr15:55376998:55377117:-|CDS|ENSG00000260916|unk|total|mutant (ssRNA)
RNA: GGGAGUUCUACAGUCCGACGAUCUAUCUAUAUUGGAACUGCCAGUGAUGAUUCUGAUAUUGUUACCCUUGAGCCACCUAAGUCCGAAGAAAUUGGAAAUCAAGAAGUUGUCAUUGUUGAAGAAGCACAGAGUUCAGAAGACUUCAACAGAGGAUUGAGCAUCA
B7: chr8:96261867:96261970:+|5pUTR|ENSG00000156471|unk|total|mutant (ssRNA)
RNA: GGGAGUUCUACAGUCCGACGAUCUCCUUCCCUCUGCUCCCAGCCUUUGCUGGGCGCCAGACCCGGCUUUGCCGUCCGGCUAUCCGCCUACUGUGGCCCGUCACCCCCGGGGUCCCGGCCUUCUCGGGCUGGGGCCGCCGCCACCAACAGAGGAUUGAGCAUCA
B8: ENSG00000107863:be:win_101|CDS|ENSG00000107863|bound_else_gene|NA|bound_elsewhere_windowed (ssRNA)
RNA: GGGAGUUCUACAGUCCGACGAUCCUGUAUCACUGUCUGAAGAUGAAACAUUCUCCUGGCCAGGUCCCAAAACAGUUACGUUGAAAAGAACAUCUCAAGGCUUUGGUUUUACAUUAAGACAUUUUAUUGUUUAUCCCCCAGAGUCAACAGAGGAUUGAGCAUCA
B9: chr10:29523788:29523889:-|CDS|ENSG00000197321|unk|FALSE|unique (ssRNA)
RNA: GGGAGUUCUACAGUCCGACGAUCAAUGCAAGUGCCACUGACUAUAAGUUUUCUUCUUCAAUAGAAAAUUCGGACUCUCCAGUUAGAAGCAUUCUGAAAUCGCAAGCUUGGCAGCCUUUGGUAGAGGGUAGCGAGAACAAGGGACAACAGAGGAUUGAGCAUCA
B10: chr8:97276997:97277102:-|CDS|ENSG00000180543|unk|FALSE|unique (ssRNA)
RNA: GGGAGUUCUACAGUCCGACGAUCAUCCCGGGCUUCUGGGGGCAAGCAUUUCAGAACCAUCCCCAGCUAGCAUCCUUUCUGAAUAGCCAAGAGAAAGAGGUACUGAGCUACUUAAACAGCUUGGAAGUGGAAGAGCUCGGCCUUCAACAGAGGAUUGAGCAUCA
B11: chrX:120627021:120627135:-|CDS|ENSG00000171155|unk|FALSE|unique (ssRNA)
RNA: GGGAGUUCUACAGUCCGACGAUCUUGAAGGGUGUGAUGCUUGGAAGCAUUUUCUGUGCUUUGAUCACUAUGCUAGGACACAUUAGGAUUGGUCAUGGAAAUAGAAUGCACCACCAUGAGCAUCAUCACCUACAAGCUCCUAACCAACAGAGGAUUGAGCAUCA
B12: ENSG00000197321:stop:overlap|stop_codon|ENSG00000197321|stop_codon|NA|stop_codon (ssRNA)
RNA: GGGAGUUCUACAGUCCGACGAUCAGUUCCAUGAGGGGGAUGCCUAUGUGGUCAAGUGGAAGUUCAUGGUGAGCACGGCAGGUUAGUGAGCGCUUGUGGUUUUUUCCAGCUGAAAGAGGCUGGCCCGGCAGCCCUGCGGGAGCCCAACAGAGGAUUGAGCAUCA
B13: ENSG00000124766:be:win_2451|3pUTR|ENSG00000124766|bound_else_gene|NA|bound_elsewhere_windowed (ssRNA)
RNA: GGGAGUUCUACAGUCCGACGAUCAAAAAAGAAAAAAAAAAGAUUUUUUUCUUCUCUUAAUCGGAAUCGUGAUGGUGUUGGAUUAUUUCAAUGGUGGGGUUAAUAUAGCAUGUUAUCCUGUCUAUCUUUUAAAGAUUUCUGUAUCAACAGAGGAUUGAGCAUCA
B14: ENSG00000107863:be:win_2151|CDS|ENSG00000107863|bound_else_gene|NA|bound_elsewhere_windowed (ssRNA)
RNA: GGGAGUUCUACAGUCCGACGAUCUUUACAAGAGGCUGAAACUGAGCAAUCAGAUACUUUAGAUAAUAAAGAAGCUGUCAUCCUAAGGGAAAAACCUCCAUCUGGACGCCAGACACCGCAGCCUUUAAGGCAUCAGUCUUACAUCAACAGAGGAUUGAGCAUCA

Target: T1, UNK ZnF1-6 (called full-length)
Test: nsRBNS (natural sequence RNA bind-n-seq); RBNS binding buffer (assumed for nsRBNS): 25 mM Tris pH 7.5, 150 mM KCl, 3 mM MgCl2, 0.01% Triton X-100, 500 ug/ml BSA, 20 U/ml SUPERase-In, 4 C; UNK is unkempt and MSI1 is Musashi-1; names of the RNAs are library labels; protein concentration not given here; high values mean tight binding

Binder	binding signal [enrichment R]
B1	0.589
B2	0.761
B3	0.408
B4	0.747
B5	1.43
B6	0.258
B7	0.745
B8	0.27
B9	0.87
B10	0.781
B11	0.442
B12	0.515
B13	0.786
B14	0.636
